This is an account of results in PMC4336329 (PLoS ONE, 2015).

The structures appear in SMILES notation. Among all 310,000 compounds or so, about 2,200 (0.71%) showed an effect of 50% or more. The effect is printed as a negative number. Some of the results follow.

human ether-à-go-go-related gene (hERG) potassium channel, sequence (Q12809 whole entry, looked up): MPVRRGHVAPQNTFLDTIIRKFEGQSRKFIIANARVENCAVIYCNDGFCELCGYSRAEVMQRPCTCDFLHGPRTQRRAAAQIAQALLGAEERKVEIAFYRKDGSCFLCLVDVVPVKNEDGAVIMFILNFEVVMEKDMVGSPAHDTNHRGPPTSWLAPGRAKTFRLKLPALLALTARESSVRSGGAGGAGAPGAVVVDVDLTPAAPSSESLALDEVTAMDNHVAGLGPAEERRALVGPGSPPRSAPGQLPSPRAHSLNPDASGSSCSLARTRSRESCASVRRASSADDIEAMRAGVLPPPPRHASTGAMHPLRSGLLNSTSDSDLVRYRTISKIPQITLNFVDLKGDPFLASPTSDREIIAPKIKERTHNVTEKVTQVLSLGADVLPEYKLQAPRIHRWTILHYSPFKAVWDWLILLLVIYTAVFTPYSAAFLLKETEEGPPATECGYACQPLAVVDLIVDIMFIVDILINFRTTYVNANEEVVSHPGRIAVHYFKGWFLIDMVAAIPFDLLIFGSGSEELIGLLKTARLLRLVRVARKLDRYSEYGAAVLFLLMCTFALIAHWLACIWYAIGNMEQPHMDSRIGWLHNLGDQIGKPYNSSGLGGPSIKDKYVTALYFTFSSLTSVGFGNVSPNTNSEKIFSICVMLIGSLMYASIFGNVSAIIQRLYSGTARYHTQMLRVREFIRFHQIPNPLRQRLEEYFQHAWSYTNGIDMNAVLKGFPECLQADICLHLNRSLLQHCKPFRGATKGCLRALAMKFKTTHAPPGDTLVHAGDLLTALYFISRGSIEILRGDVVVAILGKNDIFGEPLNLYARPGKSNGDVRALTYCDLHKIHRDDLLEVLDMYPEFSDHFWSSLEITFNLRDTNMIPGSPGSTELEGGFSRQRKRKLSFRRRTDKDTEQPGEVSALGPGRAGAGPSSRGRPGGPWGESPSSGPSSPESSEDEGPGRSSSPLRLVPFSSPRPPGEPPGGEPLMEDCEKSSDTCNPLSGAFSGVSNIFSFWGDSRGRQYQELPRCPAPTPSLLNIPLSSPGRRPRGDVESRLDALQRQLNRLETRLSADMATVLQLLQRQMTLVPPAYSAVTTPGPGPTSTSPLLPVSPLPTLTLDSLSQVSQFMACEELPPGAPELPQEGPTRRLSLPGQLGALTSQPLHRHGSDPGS

This test addresses human ether-à-go-go-related gene (hERG) potassium channel (human, UniProt Q12809). Description: primary screen, population patch clamp on CHO cells stably expressing hERG.
For `N=C1C(=O)OCC1c1ccccc1NC(=O)CN1CCCCC1` (stereo not drawn), the “hERG current change (%, negative = inhibition) at 1uM” value is 7.78%.
The same measure for `CC1CCN(S(=O)(=O)N2CCC(C(=O)NCc3cccs3)CC2)CC1`: 2.94%; for `CCOC(=O)c1sc(=S)n(C)c1NC(=O)c1cccc(Br)c1`: 12.9%.
The same measure for `C(=N\Nc1cc(N2CCCCC2)ncn1)/c1ccco1`: 14.1%; for `COc1ccc(S(=O)(=O)N2CCCC(C(F)(F)F)C2)cc1` (stereo not drawn): 14.4%.
The figure for `C[C@H](O)[C@@H](C(=O)N1CCN(C(=O)OC(C)(C)C)CC1)n1cc(CCCCNC(=O)OC(C)(C)C)nn1` is -12.4%; for `Cc1ccc(NC(=O)OCCN2CCN(S(=O)(=O)c3ccc(C)cc3)CCC2=O)cc1` it is -0.393%.
As to `O=C(CS(=O)c1ccc(Br)cc1)N1CCOCC1` (stereo not drawn), the “hERG current change (%, negative = inhibition) at 1uM” value amounted to 4.17%.
The figure for `Cc1ccc(/C=N\NC(=O)C2CC(=O)N(c3ccccc3)C2)o1` (stereo not drawn) is 10.1%.
In the case of `CCN(CC)S(=O)(=O)c1ccc(N=Cc2c(O)n(-c3ccccc3)c(=O)[nH]c2=O)cc1`, the “hERG current change (%, negative = inhibition) at 1uM” value stood at 1.64%.
Consider `Cc1ccc(C)c(CSCC(=O)NCc2cccs2)c1`, for which the “hERG current change (%, negative = inhibition) at 1uM” value is recorded as -0.287%.
With `CCOc1ccc(C(=O)Nc2nnc(C)s2)cc1OCC`, the “hERG current change (%, negative = inhibition) at 1uM” value is listed as -1.61%.
The figure for `CCN(CC)S(=O)(=O)c1ccc(C)c(NC(=O)CN(C)C)c1` is 11.5%.
The same measure for `O=C(O)c1c2c(nc3ccccc13)/C(=C/c1ccc(OC(F)F)cc1)CCC2`: 19.4%; for `O=C(NCc1n[nH]c(=S)n1-c1ccccc1)c1ccco1`: 14.1%.
The figure for `COc1cc(C2C(C(C)=O)=C(O)C(=O)N2CCc2ccc(OC)c(OC)c2)ccc1O` (stereo not drawn) is 18.6%; for `Brc1ccc(OCCOCCN2CCOCC2)cc1` it is 9.5%.
Take `CC(C)(c1cc(Br)c(O)c(Br)c1)c1cc(Br)c(O)c(Br)c1`: the “hERG current change (%, negative = inhibition) at 1uM” value was determined as 6.66%.
Take `CC(=O)NC(=O)NC1OC(=O)C(Cl)=C1Cl` (stereo not drawn): the “hERG current change (%, negative = inhibition) at 1uM” value was 12.4%.
The figure for `COc1ccc(C2CC(c3ccccc3)=NN2c2ccccc2)c(C(=O)O)c1OC` (stereo not drawn) is 0.749%.
With `COc1cc(OC)cc(-c2n[nH]c(=S)n2-c2ccc3c(c2)OCCO3)c1`, the “hERG current change (%, negative = inhibition) at 1uM” value was 14.5%.
The figure for `COc1ccc(C(C(=O)NC2CCCC2)N(Cc2ccco2)C(=O)c2snc(C(N)=O)c2N)cc1OC` (stereo not drawn) is 27%; for `Cc1nc(CN(C)C(=O)c2ccccc2OC2CCN(S(C)(=O)=O)CC2)cs1` it is 11.1%.
The same measure for `Cc1cc(C)n2nc(C(=O)Nc3nccs3)nc2n1`: -0.338%; for `COc1ccc(C(=O)NCCCOc2cccnc2)cc1OC1CCN(C(C)=O)CC1`: 9.64%.
Consider `O=[N+]([O-])c1ccc(C(=S)N2CCC(Cc3ccccc3)CC2)cc1`, for which the “hERG current change (%, negative = inhibition) at 1uM” value was found to be 1.35%.
The figure for `CCN(CC)S(=O)(=O)c1ccc(C(=O)OCC(=O)Nc2sc3c(c2C#N)CCCCC3)cc1` is -0.19%.
As to `O=C(c1ccco1)N1CCN(C(=O)C2CCN(S(=O)(=O)c3cccs3)CC2)CC1`, the “hERG current change (%, negative = inhibition) at 1uM” value was -26.1%.
The same measure for `Cc1ccc(Cn2ccnc2C(=O)Nc2ccccc2)cc1`: 9.01%; for `COCCNC(=O)C1CCN(Cc2cccc(OCc3ccccc3)c2)CC1`: 1.86%; for `N#C/C(=C\c1ccc(C(=O)O)cc1)c1ccccn1`: 17.3%.
For the molecule `Cc1ccc(CNC(=O)c2cccc3c2C(=O)c2ccc(N4CCCCC4)cc2S3(=O)=O)cc1`, the “hERG current change (%, negative = inhibition) at 1uM” value turned out to be 6.41%.
The figure for `CCC(C)(C(=O)Nc1ccc(OC)cc1)N(C)C(=O)Cn1nnnc1N` (stereo not drawn) is 18%; for `COc1ccc(NC(=O)COC(=O)C23CCC(=O)N2c2ccccc2S3)cc1` (stereo not drawn) it is 12.9%; for `Cc1ccc(CNS(=O)(=O)c2ccc3c(c2)n(C)c(=O)c(=O)n3C)cc1` it is 3.93%.
The figure for `Brc1cccc(-c2nnc3sc(CNC4CCCC4)cn23)c1` is 6.04%; for `CCN(CC)C(=O)N1c2ccccc2C=Cc2ccccc21` it is 4.41%.
The figure for `Cn1ncc2c(N3CCC(Cc4ccccc4)CC3)ncnc21` is -1.15%; for `COc1cc(NC(c2ccccc2)c2ccccc2)cc(OC)c1OC` it is 5.7%; for `Cc1cc(Br)cc(Cl)c1OC(=O)c1ccncc1` it is 12.6%.
Consider `COCCCNC(=O)c1sc2ncnc(N3CCc4ccccc4C3)c2c1C`, for which the “hERG current change (%, negative = inhibition) at 1uM” value is listed as -14.2%.
Take `Cc1noc(C)c1COc1ccc(C(=O)OCC(=O)Nc2c(C)n(C)n(-c3ccccc3)c2=O)cc1`: the “hERG current change (%, negative = inhibition) at 1uM” value is given as 13.9%.
In the case of `CC(C)OCC(O)CS(=O)Cc1ccccc1` (stereo not drawn), the “hERG current change (%, negative = inhibition) at 1uM” value came out at 8.83%.
On to `Cc1ccc(-n2nc3ccc(NC(=O)/C=C/c4ccco4)cc3n2)cc1`, for which the “hERG current change (%, negative = inhibition) at 1uM” value is 6.25%.
The figure for `CCOC(=O)CSc1nc(N)c(C#N)c(-c2ccc(OCC)cc2)c1C#N` is 14.6%.
